One test concerns the target IscS-TusA complex (Escherichia coli, UniProt P0A6B9). Put plainly: X-ray crystal structure, […] Å (two crystal forms). It counts as binding. The settings on record: covalent; internal aldimine with Lys206 of IscS; crystals from 0.12 M magnesium formate, 20% PEG 3350.
The next test addresses IscS-IscU complex (Escherichia coli, UniProt P0A6B9). Description: X-ray crystal structure, […] Å. The settings on record: covalent; internal aldimine with Lys206 of IscS; crystals from 0.2 M sodium nitrate, 16% PEG 8000, 0.1 M Bicine pH 9. Format: binding.

Chain of IscS-IscU complex (P0A6B9 whole entry, looked up, one chain of several): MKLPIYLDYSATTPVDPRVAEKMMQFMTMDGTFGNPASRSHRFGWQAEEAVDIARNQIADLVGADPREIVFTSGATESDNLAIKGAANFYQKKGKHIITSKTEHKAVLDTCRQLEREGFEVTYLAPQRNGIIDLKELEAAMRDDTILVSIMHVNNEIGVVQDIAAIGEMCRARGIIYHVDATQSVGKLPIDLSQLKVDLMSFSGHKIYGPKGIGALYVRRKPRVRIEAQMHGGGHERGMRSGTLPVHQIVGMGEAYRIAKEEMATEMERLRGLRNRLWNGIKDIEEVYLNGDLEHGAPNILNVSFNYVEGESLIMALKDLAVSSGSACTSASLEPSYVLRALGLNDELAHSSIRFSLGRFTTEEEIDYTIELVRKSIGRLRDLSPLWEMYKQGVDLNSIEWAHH
Chain of IscS-TusA complex (P0A6B9 whole entry, looked up, one chain of several): as above

With `Cc1ncc(COP(=O)(O)O)c(C=O)c1O` [pyridoxal-5′-phosphate], the “X-ray crystal structure, 2.45 Å (two crystal forms)” value at IscS-TusA complex is “presence of the PLP cofactor as an internal aldimine covalently bound to Lys206”. Further, the “X-ray crystal structure, 3.0 Å” value at IscS-IscU complex is listed as “presence of the PLP cofactor as an internal aldimine covalently bound to Lys206”.

Values taken from publication PMC2854127, “Structural Basis for Fe–S Cluster Assembly and tRNA Thiolation Mediated by IscS Protein–Protein Interactions” (PLoS Biology, 2010).
